System: S. aureus strains
Assay: Stimulation of bacteriophage amplification by fatty acid compounds, all hosts tested
Conditions: fatty acid compound added to growth medium
Source text: For the purposes of this invention, the term “fatty acid” shall refer to all such compounds and related compounds.

For `CCCCCCCCCCCC(=O)O` [lauric acid], the “effect on bacteriophage amplification” value was “generally promotes bacteriophage amplification in nearly all hosts tested”.

Source: US8455186B2, “Method of detection of microorganisms with enhanced bacteriophage amplification” (priority 2007, dated 2013)
